Usually Kd stands for the free concentration of one partner at which half of the binding sites on the other are occupied at equilibrium, for simple one-to-one binding. The low end stands for higher affinity, the high end for lower affinity.

Holding throughout (settings): both partners purified
Assay [1] deals with T1, fluorescein-labeled SSB C-terminal peptide (E. coli).
T1 construct: also called flu-CTP; labeled C-terminal peptide
T1 peptide: fluorescein-MDFDDDIPF
Nature of the assay: fluorescence polarisation; 15 nM flu-CTP titrated with SSBdC; standard LLPS buffer with 300 mM KGlu; 25°C; quadratic binding equation. (Fluorescence polarisation rises when a labelled molecule tumbles more slowly, as on binding a larger partner.)

Assay [2] deals with T1, fluorescein-labeled SSB C-terminal …. Nature of the assay: fluorescence polarisation; 15 nM flu-CTP titrated with SSBdC; pH 6.5 (20 mM MES, 50 mM KGlu, 5 mM Mg(OAc)2); 25°C.
Assay [3] shares this target. The experiment in a line: fluorescence polarisation; 15 nM flu-CTP titrated with SSBdC; pH 5.5 (20 mM MES, 50 mM KGlu, 5 mM Mg(OAc)2); 25°C.
The target is the same in assay [4]. The experiment in a line: fluorescence polarisation; 15 nM flu-CTP titrated with SSBdC; pH 8.5 (20 mM Tris, 50 mM KGlu, 5 mM Mg(OAc)2); 25°C.
For assay [5] the target is unchanged. The experiment in a line: fluorescence polarisation; 15 nM flu-CTP titrated with SSBdC; pH 10 (20 mM Tris, 50 mM KGlu, 5 mM Mg(OAc)2); 25°C.
Assay [6] has the same target. The experiment in a line: fluorescence polarisation; 15 nM flu-CTP titrated with SSBdC; pH 5 (20 mM MES, 50 mM KGlu, 5 mM Mg(OAc)2); 25°C.
Assay [7] shares this target. Nature of the assay: fluorescence polarisation; 15 nM flu-CTP titrated with SSBdC; pH 9.5 (20 mM Tris, 50 mM KGlu, 5 mM Mg(OAc)2); 25°C.
The target is the same in assay [8]. Nature of the assay: fluorescence polarisation; 15 nM flu-CTP titrated with SSBdC; pH 9 (20 mM Tris, 50 mM KGlu, 5 mM Mg(OAc)2); 25°C.
Assay [9] shares this target. The experiment in a line: fluorescence polarisation; 15 nM flu-CTP titrated with SSBdC; pH series, pH 7.5 (20 mM Tris, 50 mM KGlu, 5 mM Mg(OAc)2); 25°C.
Assay [10] shares this target. Nature of the assay: fluorescence polarisation; 15 nM flu-CTP titrated with SSB or SSBdC; standard LLPS buffer (20 mM Tris-OAc pH 7.5, 50 mM KGlu, 5 mM Mg(OAc)2), no PEG; 25°C; quadratic binding equation.
Assay [11] shares this target. The experiment in a line: fluorescence polarisation; 15 nM flu-CTP titrated with SSBdC; pH 3 (20 mM citrate, 50 mM KGlu, 5 mM Mg(OAc)2); 25°C.
For assay [12] the target is unchanged. The experiment in a line: fluorescence polarisation; 15 nM flu-CTP titrated with SSB or SSBdC; standard LLPS buffer with 300 mM KCl (Table S2; methods and Figure 5 legend say 300 mM NaCl); 25°C.
Assay [13] has the same target. The experiment in a line: fluorescence polarisation; 15 nM flu-CTP titrated with SSBdC; pH 4.5 (20 mM MES, 50 mM KGlu, 5 mM Mg(OAc)2); 25°C.
For assay [14] the target is unchanged. Nature of the assay: fluorescence polarisation; 15 nM flu-CTP titrated with SSBdC; pH 7 (20 mM Tris, 50 mM KGlu, 5 mM Mg(OAc)2); 25°C.
Assay [15] has the same target. Nature of the assay: fluorescence polarisation; 15 nM flu-CTP titrated with SSBdC; pH 6 (20 mM MES, 50 mM KGlu, 5 mM Mg(OAc)2); 25°C.
The target is the same in assay [16]. Nature of the assay: fluorescence polarisation; 15 nM flu-CTP titrated with SSBdC; standard LLPS buffer with 300 mM KGlu and 30 mg/mL PEG; 25°C; quadratic binding equation.
Assay [17] has the same target. The experiment in a line: fluorescence polarisation; 15 nM flu-CTP titrated with SSBdC; pH 8 (20 mM Tris, 50 mM KGlu, 5 mM Mg(OAc)2); 25°C.
Assay [18] shares this target. Nature of the assay: fluorescence polarisation; 15 nM flu-CTP titrated with SSBdC; pH 4 (20 mM citrate, 50 mM KGlu, 5 mM Mg(OAc)2); 25°C.
Assay [19] shares this target. The experiment in a line: fluorescence polarisation; 15 nM flu-CTP titrated with SSBdC; pH 3.5 (20 mM citrate, 50 mM KGlu, 5 mM Mg(OAc)2); 25°C.
The target is the same in assay [20]. The experiment in a line: fluorescence polarisation; 15 nM flu-CTP titrated with SSB or SSBdC; standard LLPS buffer with 30 mg/mL PEG 20,000; 25°C; quadratic binding equation.

No end group written: not given here. fluorescein = fluorescein label Where only a bound is given, the exact number is not on record here.

B1: SSBdC, CTP-less SSB variant comprising […] (domain or fragment)
chain: not shown
As to B1, the Kd in [1] is 12000 nM; in assay [2] it was 1000 nM; in [3], 1200 nM; in assay [4] it was 2600 nM; in assay [5] it was 6900 nM; in [6], 650 nM. Moreover, the Kd was 6500 nM in [7]; 5000 nM in [8]; 2000 nM in assay [9]; 2400 nM in assay [10]; 330 nM in [11]; greater than 100000 nM in [12]. Moreover, the Kd in assay [13] was 510 nM; in assay [14] it was 940 nM; in [15] it was 850 nM; in assay [16] it was 5900 nM; in assay [17], 2200 nM; in assay [18], 930 nM. Also, the Kd in assay [19] came out at 600 nM; in assay [20] it was 80 nM.
